We go through 167 variants from the RNAGym collection of RNA variant scans (doi:10.7554/elife.90254).

Read counts are not given, so values of variants with three or more changes are uncertain.

B1: LINE1-mini (parent)
chain: GGCAGAGCUCAACACAGCGUGGCAAAGUGGCUGUGGCUAGACUGCC

Variants of B1 are the subject of this data set. Briefly: self-cleavage, relative activity (ratio to wild type); higher = more cleavage; in vitro, sequencing; the parent is a self-cleaving ribozyme.
G22U A24C U38G: the self-cleavage came out at 0.02.

With G22C C23U A26C, the self-cleavage was determined as 0.27.

As for G22C C31A G33A, the self-cleavage stood at 0.06.

Regarding G21U U34G U38C, the self-cleavage was determined as 0.13.

Regarding G21U U34G U38A, the self-cleavage was determined as 0.15.

For G22U A39G C42A, the self-cleavage is 0.14.

In the case of G22A C23A A25U G40A, the self-cleavage was 0.15.

For the variant G21U C31A A39C, the self-cleavage was determined as 0.1.

With G21U G27U U34G, the self-cleavage turned out to be 0.09.

Consider G22A A39U C45A, for which the self-cleavage amounted to 0.48.

For G21U U28G G44A, the self-cleavage worked out at 0.78.

As to G21U G35U A41G C42U, the self-cleavage amounted to 0.05.

G22A A26C C45U: the self-cleavage came to 1.09.

With G21U G22C G29A G36U A41G, the self-cleavage amounted to 0.15.

For G22A G27A C37U, the self-cleavage worked out at 0.04.

G21U C23G G35A: the self-cleavage came out at 0.11.

With G22U G27C G29A, the self-cleavage turned out to be 2.07.

On to G21U U38A C45G C46G, for which the self-cleavage was 0.16.

Consider G21U C23G U43G, for which the self-cleavage was determined as 1.

In the case of G22U A26U G35A C37U, the self-cleavage amounted to 0.07.

G21U C31U G40U: the self-cleavage was determined as 0.03.

As to G22C A24G G33A C46A, the self-cleavage is 0.04.

As for G22U G29U G40A, the self-cleavage was found to be 0.17.

As to G22C G40U C45U, the self-cleavage turned out to be 0.08.

G22C C23A G36A: the self-cleavage came to 0.05.

For the variant G22C C31G G35U U38A, the self-cleavage was determined as 0.03.

G22U C31G C37A: the self-cleavage was determined as 0.04.

As to G22U A25U C31U, the self-cleavage came to 0.5.

Consider G22A A26G C37A, for which the self-cleavage was determined as 0.01.

For G22U G33U U43A, the self-cleavage was determined as 0.04.

Consider G22A A25C A39C, for which the self-cleavage is 0.11.

In the case of G21U C37A U43C C45U, the self-cleavage stood at 0.1.

For the variant G22C U28G G29U C46U, the self-cleavage was found to be 0.66.

As to G21U G22U G33C G36A, the self-cleavage was 0.07.

Regarding G21U G30U C37U, the self-cleavage is 0.02.

With G22A C37G C42U, the self-cleavage amounted to 0.02.

On to G22A C31G C37A, for which the self-cleavage worked out at 0.04.

With G22U G36C A41U, the self-cleavage stood at 0.34.

With G21U C23G G29C, the self-cleavage is 0.55.

With G22A C31U U32A, the self-cleavage came to 0.08.

Take G22U A25U U32C C46A: the self-cleavage came out at 0.05.

Regarding G22U A25C G27U, the self-cleavage worked out at 0.1.

G22A G27C U43C: the self-cleavage turned out to be 0.04.

With G22U A24G G30U G44C, the self-cleavage was determined as 0.19.

Take G22A C23U G44U: the self-cleavage was 0.19.

Regarding G22U G33A C45A C46A, the self-cleavage was determined as 0.05.

In the case of G22C U32G A39C G44A, the self-cleavage stood at 0.08.

Take G22U G33C A39C: the self-cleavage came to 0.12.

Turning to G21U C31A G36A A41U, the self-cleavage was 0.31.

As to G22C A26U C31U, the self-cleavage was found to be 0.18.

For G22U A25C C31U A41U, the self-cleavage is 0.1.

For the variant G22C G27A A39C U43C, the self-cleavage came out at 0.08.

G22A G27U G35A: the self-cleavage came out at 0.11.

In the case of G22A C23U G33A, the self-cleavage was determined as 0.25.

On to G22A A25C G36C U43G, for which the self-cleavage turned out to be 0.

As to G22U C23U G36U G40A, the self-cleavage came out at 0.32.

Take G22A U28A G35U C37A C46G: the self-cleavage turned out to be 0.08.

G22U G29A G36U A39C: the self-cleavage is 0.26.

For the variant G22A A25G G27C, the self-cleavage turned out to be 0.33.

Take G22A G36C C46A: the self-cleavage was 0.04.

Take G22A C31A C37A: the self-cleavage was found to be 0.03.

For G22U C23A C42A, the self-cleavage is 0.05.

G21U C31A U32G C45A C46G: the self-cleavage is 0.01.

As to G21U C31A C37G C46U, the self-cleavage was 0.02.

G22C G30C G33U: the self-cleavage amounted to 0.05.

Take G22C G29U G30C: the self-cleavage stood at 0.17.

As for G22C G29U G30A, the self-cleavage was 1.08.

As to G22A C23U A39C G40U, the self-cleavage came to 0.14.

As for G21U G29A G40A C42G, the self-cleavage was found to be 0.03.

Take G21U G29U U34G: the self-cleavage turned out to be 0.13.

As for G22A C23U G29C A39C, the self-cleavage is 0.02.

As to G21U G33A G35U, the self-cleavage was 0.08.

G22U A26C U32C: the self-cleavage amounted to 0.16.

Take G21U G33U G35U: the self-cleavage amounted to 0.1.

Turning to G21U U28A G44A, the self-cleavage stood at 0.04.

With G21U C37U C45U, the self-cleavage is 0.11.

On to G22A G35C U38A, for which the self-cleavage stood at 0.02.

In the case of G22A A26C G27A, the self-cleavage worked out at 0.29.

For G22U C23A C46U, the self-cleavage is 1.09.

In the case of G22A A26G G30C C37A, the self-cleavage was 0.1.

On to G21U G27U C46A, for which the self-cleavage came out at 0.11.

As for G21U U34C G44A, the self-cleavage amounted to 0.06.

As to G21U G22A G35U A39G, the self-cleavage came to 0.07.

Take G21U G22A G33A: the self-cleavage was 0.52.

Consider G21U G22C A25U, for which the self-cleavage is 2.88.

For G22C G27A G36A, the self-cleavage worked out at 0.1.

As for G22U C23G C31G, the self-cleavage was found to be 0.13.

As to G22A G29A G30U, the self-cleavage is 2.79.

For the variant G22A U28G G35A A41G C46G, the self-cleavage worked out at 0.1.

Turning to G22A G30U U43C, the self-cleavage worked out at 0.05.

Turning to G22A A24C A41G, the self-cleavage is 0.4.

As to G22A G27A U32C, the self-cleavage came to 0.24.

Turning to G21U G33A U38C, the self-cleavage stood at 0.02.

For G22C C23U G35A C45U, the self-cleavage was 0.26.

For the variant G22A U34G C37G, the self-cleavage was determined as 0.04.

Regarding G22C G29A G33A, the self-cleavage stood at 0.38.

Take G22U G27C G29A U32A: the self-cleavage is 0.26.

Take G22U A25G A26C G40C: the self-cleavage was found to be 0.05.

Take G22C A24U G35A C46A: the self-cleavage is 0.02.

Consider G22C U28A G36A G40C, for which the self-cleavage was 0.03.

On to G22C C23U G33A G40C, for which the self-cleavage worked out at 0.05.

Regarding G22A A26U G29A G33U, the self-cleavage was 0.36.

On to G22A A26U C37A, for which the self-cleavage is 0.06.

Take G22A A24U U28G C31A C45U: the self-cleavage came out at 0.04.

For the variant G21U U32A C46A, the self-cleavage came out at 0.07.

For G21U U28C G29A C46U, the self-cleavage is 1.79.

For G21U U38C G44U, the self-cleavage came to 0.37.

As to G22A G36U A39G, the self-cleavage was 0.04.

Take G22A C31A A41U G44C: the self-cleavage turned out to be 0.04.

As to G22A C31A G36U, the self-cleavage worked out at 0.04.

Consider G22A G33A A41C G44U, for which the self-cleavage is 0.02.

As for G21U C31A G35A C45U, the self-cleavage was 0.03.

As for G21U G30U C31G, the self-cleavage was 0.06.

As to G22C G30C U38C, the self-cleavage came out at 0.14.

On to G22U C23A A24U U38C C45A C46U, for which the self-cleavage was determined as 0.38.

For the variant G21U G35U C46A, the self-cleavage was determined as 0.08.

Turning to G21U G22A A25C U28C G35A, the self-cleavage came to 0.07.

As for G21U C23U A39G, the self-cleavage was found to be 0.09.

With G21U C23U A39C, the self-cleavage stood at 0.08.

For the variant G22A C23U U34C C45A, the self-cleavage came to 0.04.

On to G22U G27A C42A C46A, for which the self-cleavage came out at 0.04.

In the case of G21U G40A C46G, the self-cleavage turned out to be 0.12.

As to G22U G36A C37A C46A, the self-cleavage amounted to 0.05.

Turning to G22C U34A C42G, the self-cleavage was determined as 0.03.

G22A A25U A26C G27U: the self-cleavage is 0.59.

Turning to G22A C23G G30A, the self-cleavage amounted to 2.03.

With G22A C23G G30U, the self-cleavage was 0.92.

As for G22U A39C G40U, the self-cleavage is 0.11.

For the variant G22U A26U U28C C46A, the self-cleavage was 0.08.

For the variant G22U C23G G35A, the self-cleavage stood at 0.14.

Consider G22U A24U G36A, for which the self-cleavage was 0.39.

G22A G27U A41U: the self-cleavage was 0.54.

In the case of G21U C23U C31A G36A, the self-cleavage came to 0.21.

For the variant G21U C31G A41C, the self-cleavage stood at 0.35.

Turning to G22C G36C C37G C46G, the self-cleavage came to 0.13.

For the variant G21U A26G G33C G40U, the self-cleavage worked out at 0.02.

As for G22U C23U G40C, the self-cleavage is 0.13.

G21U G29U G35U: the self-cleavage came to 0.03.

As for G22A C31G G33U U43A, the self-cleavage is 0.08.

G21U G40U U43C: the self-cleavage was 0.06.

Take G21U G27A G29U: the self-cleavage stood at 0.45.

On to G22A G27U G33U A39U, for which the self-cleavage came to 0.39.

On to G22C U28G C42G, for which the self-cleavage was 0.03.

Turning to G21U G33C C37G, the self-cleavage was determined as 0.05.

Consider G21U U32A A41G C45A, for which the self-cleavage was found to be 0.01.

Take G22U C31G G33A: the self-cleavage worked out at 0.03.

G22U C31G G33U: the self-cleavage was found to be 0.07.

On to G22C A25G G40A, for which the self-cleavage was 0.01.

In the case of G22C C23U U28A, the self-cleavage was found to be 2.9.

For the variant G22A G30U U32G, the self-cleavage worked out at 0.02.

Take G22C G35C U38A A41C: the self-cleavage worked out at 0.06.

For the variant G21U G30A G33U, the self-cleavage came out at 0.06.

For G22A A41U C46A, the self-cleavage was determined as 0.52.

G21U C23U G30C G40C: the self-cleavage came to 0.07.

Turning to G22A G29A C42U G44C, the self-cleavage came out at 0.07.

As for G22C C42G G44U, the self-cleavage was 0.03.

G22A G40U C45A: the self-cleavage is 0.07.

Consider G21U C42G G44C, for which the self-cleavage is 0.15.

Consider G22C U32C C37G, for which the self-cleavage came to 0.01.

For G21U G27U C42A, the self-cleavage was determined as 0.2.

For G22A A25C C45A, the self-cleavage came to 0.26.

For G21U A39C G40A, the self-cleavage came to 0.06.

In the case of G22U G27C A41G, the self-cleavage was 0.1.

Regarding G22A C23A U34G, the self-cleavage amounted to 0.44.

In the case of G21U U34C A41U, the self-cleavage was determined as 0.35.

Consider G22C A24U G36U, for which the self-cleavage was determined as 0.07.

Consider G21U A26U G33A G35A G40U, for which the self-cleavage stood at 0.1.
